# Source: PubChem BioAssay AID686979 (National Center for Advancing Translational Sciences (NCATS), 2013)
# The whole screen tested about 420,000 compounds, of which about 50,000 (12%) were called active. Inconclusive results, whose numbers are uncertain, are shown with a selection of clear calls. Calls come from the whole dose curve; as a rule, active = well fitted inhibition curve with a large enough effect; inconclusive = small, poorly fitted or top-dose-only effect; inactive = flat fitted curve, though single readings scatter. Potencies of inconclusive entries are left out as doubtful fits.
# Assay: qHTS for Inhibitors of human tyrosyl-DNA phosphodiesterase 1 (TDP1): qHTS in cells in presence of CPT; note: nearly all actives have a fitted effect of over 55% in size
# Details: chicken DT40 Tdp1-/-;hTDP1 cells + 20 nM CPT, ATP luminescence, 48 h; activity change, negative = growth inhibition: at 46.2 µM (top of the series) unless noted
# Outline: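 Chicken DT40 Tdp1-/- cells complemented with human TDP1, 400 cells/well, exposed to compounds plus 20 nM camptothecin for at least 48 h at 37 C; viability read as ATP content by CellTiter-Glo luminescence.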
# % is set by controls: 0 for no effect and ±100 for the full control effect; potency is the fitted concentration of half-maximal effect; tags give direction and shape of the fitted curve.
SMILES,Potency,"activity change, negative = growth inhibition"
Fc1cccc(Cl)c1Cn1nnc2c(NCc3ccncc3)ncnc21,active: 23.1 µM,–
CC(=O)Nc1nc(C=C(Cl)Cl)cs1,inactive,–
Cc1ccc(NC2=C(Cl)C(=O)OC2OC(=O)c2ccccc2)c(C)c1 (stereo unspecified),"inconclusive [inhibitor, single point]",–
COCC(=O)N1CCC2(CC1)CN(Cc1nccs1)C2,inactive,–
CCOC(=O)c1c(C)[nH]c(C)c1C(=O)COC(=O)c1nn(CC)c(=O)c2ccccc12,inactive,–
Cc1c(Cl)cccc1NC(=O)c1ccc2c(c1)CCCN2S(C)(=O)=O,inactive,–
Cn1nc(-c2ccccc2)c(-c2nc(-c3ccccc3Cl)no2)c1Cl,"inconclusive [inhibitor, single point]",–
CC(C)(C)OC(=O)N1CCC(c2c(C(=O)NCCN3CCc4ccccc4C3)cnn2-c2ccc(F)cc2)CC1,"inconclusive [inhibitor, single point]",–
C/C(=N\NC(=O)c1nnn(-c2nonc2N)c1C(C)C)c1cc(C)sc1C,"inconclusive [inhibitor, single point]",–
Cc1ccc(CNC(=O)Nc2cc(C(=O)NCc3ccc(C(C)C)cc3)ccc2N2CCCC2)cc1,"inconclusive [inhibitor, single point]",–
CC(C)c1ccc(OCc2nnc(SCC(=O)N3CCCCC3)o2)cc1,inactive,–
CCc1cc2c(CN3CCN(Cc4ccccc4)CC3)cc(=O)oc2cc1O,active: 16.4 µM,–
CCN1C(=O)c2ccccc2Sc2ccc(NC(=O)N3CCN(c4cc(C)ccc4C)CC3)cc21,active: 5.8 µM,–
CCOC(=O)c1ccc(NC(=O)C(CC)Sc2nc3ccncc3[nH]2)cc1 (stereo unspecified),"inconclusive [inhibitor, single point]",–
CCn1c2ccccc2c(=O)c2ccccc21,"inconclusive [inhibitor, single point]",–
Cc1ccc(NC(=O)N2CCC(O)(c3cccnc3)CC2)cc1,inactive,–
Clc1ccc(CSc2ncnc3nc[nH]c23)cc1,"inconclusive [inhibitor, partial curve, poor fit]",–
CCn1c(=O)cc(SCC(=O)NCc2cccc(Cl)c2)c2ccccc21,"inconclusive [inhibitor, single point]",–
COc1ccc(Cn2c(C(=O)O)c(CNC3CCCC3)c3ccc(OC)cc32)cc1,"inconclusive [inhibitor, partial curve]",–
CC(C)CN(C(=O)COC(=O)CCSc1ccc(Cl)cc1)c1c(N)n(Cc2ccccc2)c(=O)[nH]c1=O,"inconclusive [inhibitor, single point]",–
Cc1onc(-c2ccccc2Cl)c1C(=O)OCC(=O)c1ccc[nH]1,"inconclusive [inhibitor, single point]",–
CCCCC/C=C\C/C=C\C/C=C\C/C=C\CCCC(=O)O[C@H](COCCCCCCCCCCCCCCCC)COP(=O)([O-])OCC[N+](C)(C)C,–,inactive: 7.48% [at 4.12 µM]
C[C@H](CO)N1C[C@H](C)[C@H](CN(C)C(=O)Nc2ccc(F)cc2)OCc2ccccc2-c2c(n(C)c3ccccc23)C1=O,active: 14.6 µM,–
Cc1ccc(CN(c2ccc(C(=O)N3CCc4ccccc4C3)cc2)S(C)(=O)=O)cc1,"inconclusive [inhibitor, single point]",–

SMILES,Potency,"activity change, negative = growth inhibition"
C[C@@H]1CN([C@@H](C)CO)C(=O)c2cccc(NC(=O)Nc3ccc4c(c3)OCO4)c2O[C@H]1CN(C)S(=O)(=O)c1cn(C)cn1,"inconclusive [inhibitor, partial curve]",–
Cc1c(CC(=O)NCCCCCC(=O)O)c(=O)oc2cc3occ(-c4ccccc4)c3cc12,inactive,–
CC(=O)c1ccc(OCc2cc([N+](=O)[O-])cc3c2OCOC3)cc1,inactive,–
CCSc1nnc(NC(=O)CSc2nc3c(c(=O)n2C)SC(C)C3)s1 (stereo unspecified),active: 14.6 µM,–
C=CCn1c(SCc2cccc(F)c2)nc2cc(C(=O)N3CCC(C(N)=O)CC3)ccc2c1=O,"inconclusive [inhibitor, single point]",–
Cc1cc(SCCOc2ccc(Br)cc2)nc(N)n1,"inconclusive [inhibitor, single point]",–
C=C1NN(C)C(=O)N1c1ccc(OC)cc1,inactive,–
COc1ccc(C(=O)N/N=C/c2ccccn2)cc1OC,"inconclusive [inhibitor, single point]",–
CSc1sc(-c2nnc(SCC(=O)Nc3ccccc3)n2C)c2c1C=CCC2,"inconclusive [inhibitor, partial curve]",–
Cc1cc(=O)[nH]c(Nc2ccccc2C)n1,inactive,–
O=C(CN1C(=O)CCC1=O)Nc1ccc(S(=O)(=O)N2CCOCC2)cc1,"inconclusive [inhibitor, single point]",–
CC(C)OC(=O)NC(C)(C)COC(=O)Nc1cccc(Cl)c1,"inconclusive [inhibitor, single point]",–
Cc1ccccc1OCCNc1cc(N2CCN(CCO)CC2)ccc1[N+](=O)[O-],"inconclusive [inhibitor, single point]",–
Cc1ccc(CN2CC(C(=O)Nc3cc(C)ccn3)CC2=O)cc1 (stereo unspecified),inactive,–
S=c1nc(C2CCCCC2)n(-c2ccccc2)[nH]1,"inconclusive [inhibitor, single point]",–
CC[n+]1ccc(C)c2cc(P(=O)(c3ccccc3)c3ccccc3)ccc21,inactive,–
CCOC(=O)C1(Cc2ccccc2)CCN(Cc2ccc(COC)o2)CC1,active: 11.6 µM,–
CCOc1ccc(-c2nn(-c3ccccc3)cc2C2NC(=O)NC(C)=C2C(=O)OC(C)C)cc1 (stereo unspecified),"inconclusive [inhibitor, single point]",–
Cc1ccc(Cl)cc1N1CCN(CC(=O)Nc2ccc(CN3CCCCC3)cc2)CC1,"inconclusive [inhibitor, single point]",–
CSc1nc(Nc2ccc(F)cc2)cc(-c2ccccc2)n1,active: 14.6 µM,–
CCOc1ccc(/C=C2\C(=O)c3ccccc3OC2c2ccccc2)cc1 (stereo unspecified),"inconclusive [inhibitor, partial curve]",–
CC1(C(=O)NCc2cccc3ccccc23)CCN1Cc1cccc2c1OCO2 (stereo unspecified),active: 23.1 µM,–
CCCCCCN1C[C@H](O)[C@@H](n2cc(COC(=O)c3ccccc3)nn2)C[C@@H]1c1ccc(Cl)cc1,"inconclusive [inhibitor, single point]",–
CCOc1ccc(C(=O)Nc2ccccc2N2CCN(C(=O)c3ccccc3)CC2)cc1[N+](=O)[O-],active: 7.31 µM,–

SMILES,Potency,"activity change, negative = growth inhibition"
Cc1ccc(C)c2[nH]c(=O)c(C(c3nnnn3Cc3ccco3)N3CCc4ccccc4C3)cc12 (stereo unspecified),"inconclusive [inhibitor, single point]",–
O=C(Nc1ccc(Cl)cn1)c1ccc2c(c1)OCCO2,"inconclusive [inhibitor, single point]",–
O=C(NCC(c1ccc(Cl)cc1)N1CCOCC1)c1ccccc1F (stereo unspecified),active: 16.4 µM,–
CC(=O)n1cc(-c2ccncc2)c2ccccc21,"inconclusive [inhibitor, single point]",–
COc1cc(C(=O)Nc2ccccc2C(=O)NCc2cccnc2)cc(OC)c1OC,inactive,–
O=C(NCCc1ccccc1)C(=O)NCC1OCCCN1S(=O)(=O)c1cccs1 (stereo unspecified),inactive,–
COc1ccc(C)cc1S(=O)(=O)N(CC(=O)NCc1ccco1)c1ccc(C)cc1,"inconclusive [inhibitor, single point]",–
COC(=O)c1cccc(/C=N/NC(N)=S)c1O,active: 0.184 µM,–
N#C[C@@H]1C[C@@H]2C[C@@H]2N1C(=O)[C@@H](N)C12CC3CC(CC(O)(C3)C1)C2,inactive,–
Cc1cc(C)nc(SCC(=O)N/N=C/c2cccn2-c2ccc(O)cc2)n1,inactive,–
Cc1oc2cc3oc(=O)ccc3cc2c1C,inactive,–
CC(C(=O)NC(=O)NC1CCCCC1)N1CCN(c2ccc(O)cc2)CC1 (stereo unspecified),"inconclusive [inhibitor, single point]",–
Cc1noc(C)c1-c1nc(NC2CCNCC2)c2ccccc2n1,"inconclusive [inhibitor, single point]",–
CCC(C)NC(=O)CS(=O)Cc1nc(-c2ccccc2C)oc1C (stereo unspecified),–,inconclusive: -30.7% [inhibitor]
COc1cccc(Nc2nc(N)c([N+](=O)[O-])c(NCc3ccccc3)n2)c1,"inconclusive [inhibitor, single point]",–
Cc1ccc(N/C=C/C(=O)c2cccs2)cc1,"inconclusive [inhibitor, single point]",–
Clc1ccc(CSc2ncnc3c2ncn3C2CCCCO2)cc1 (stereo unspecified),"inconclusive [inhibitor, partial curve]",–
O=C(NCC(c1ccco1)N1CCN(c2ccccc2)CC1)C1CCCCC1 (stereo unspecified),"inconclusive [inhibitor, partial curve]",–
CCOC(=O)/C=C/C(=O)Nc1ccccc1-c1ccccc1NC(=O)/C=C/C(=O)OCC,active: 4.61 µM,–
O=C(COc1ccc2ccccc2c1)N/N=C/c1ccccn1,"inconclusive [inhibitor, single point]",–
C/C(=C\C(=S)Nc1ccccc1)Nc1ccc2ccccc2c1,active: 18.4 µM,–
O=C(c1ccc(F)cc1)c1ccc(OCC(=O)N2CCOCC2)cc1,"inconclusive [inhibitor, partial curve]",–
O=C(COc1ccc([N+](=O)[O-])cc1)Nc1nc2c(s1)CCCC2,inactive,–
